This is an account of results in ChEMBL document CHEMBL4888484, “Replenishing the malaria drug discovery pipeline: Screening and hit evaluation of the MMV Hit Generation Library 1 (HGL1) against asexual blood stage Plasmodium falciparum ,using a nano luciferase reporter read-out” (2022).

One may read the % Inhibition as the drop in the measured response relative to a control, in per cent.

Screen size: about 150,000 compounds; about 540 (0.36%) showed an effect of 50% or more. This is one part of the list.

The subject of this assay is Plasmodium falciparum. Briefly: Primary screen in NF54 nanoGlo assay, in single point, at 2uM, 72h; a lower Z score goes with more inhibition. The format is functional, Erythrocyte. The note with it: timepoint 72 hour.
`Cc1n[nH]c(C)c1NC(=O)CN[C@@H]1c2ccccc2CCC1(C)C`: the “% Inhibition” value is listed as -15% and the Z score is listed as 2.73.
With `CCCC1(CCC)NC(=O)N(CC(=O)N[C@H]2CCCc3ccccc32)C1=O`, the “% Inhibition” value is listed as -8% and the Z score came out at 1.08.
In the case of `O=C(NC[C@H]1CCCO1)/C(=C/c1ccc(-c2ccc(Cl)cc2)o1)NC(=O)c1ccc(Cl)cc1`, the “% Inhibition” value was found to be 4% and the Z score was -0.66.
Take `O=C(Cn1ccc(C(F)(F)F)n1)N1CCC(c2ccccc2)=N1`: the “% Inhibition” value is on record as -3% and the Z score came out at 0.62.
As for `O=C(CC1CCCC1)Nc1cccc(-c2cc3ccccc3[nH]2)c1`, the “% Inhibition” value was 18% and the Z score is listed as -2.05.
On the same counts, the results for `O=C1COc2cc(C(=O)N3CCC[C@H]3c3ccc4c(c3)OCCCO4)ccc2N1` are 9% and -1.2.
For the molecule `Cc1nc2c(s1)[C@@H](NC(=O)Cn1nc(C)c3cccnc31)CCC2`, the “% Inhibition” value is given as -6% and the Z score worked out at 1.11.
Taken in the same sequence, the figures for `COC(=O)CN(Cc1cnn(C)c1)C1CCCC1` were 3% and -0.39.
As to `O=S1(=O)N=C(NCc2cccnc2)c2ccccc21`, the “% Inhibition” value is given as 0% and the Z score is recorded as -0.03.
As to `COc1cccc(-c2ccccc2NC(=O)C2CCN(C[C@@H]3CC=CCC3)CC2)c1`, the “% Inhibition” value is on record as 3% and the Z score is recorded as -0.61.
For the molecule `O[C@H]1C[C@@H](c2cc(N3CCN(c4ncccn4)CC3)ncn2)C1`, the “% Inhibition” value was -18% and the Z score is 2.35.
Regarding `Cc1cc(F)c(CN[C@H]2C[C@H](C(=O)O)C2)c(F)c1`, the “% Inhibition” value was 1% and the Z score is -0.13.
On to `COCC(NC(=O)c1cc[nH]c1C)C1CCCO1` (stereo not given), for which the “% Inhibition” value is reported as -10% and the Z score was 1.9.
As for `N#CCCN1CCN(CC(F)(F)C(F)F)CC1`, the “% Inhibition” value stood at 0% and the Z score amounted to 0.06.
With `C=CCN1Cc2cccc(OC)c2O[C@@H](C)C1=O`, the “% Inhibition” value is recorded as -7% and the Z score is given as 1.03.
For `CN(Cc1cccnc1)[C@@H](/C=C/C(C)(C)C)C(=O)O`, the “% Inhibition” value turned out to be 1% and the Z score was -0.11.
On the same counts, the results for `CC(=O)N1CCN(Cc2csc(-c3ccco3)n2)CC1` are 0% and -0.06.
Take `COC(=O)N1CCC(CCC(=O)N(C)Cc2ccccc2)CC1`: the “% Inhibition” value was -3% and the Z score was determined as 0.47.
On the same counts, the results for `Cc1cc(NC(=O)C(C)S(=O)(=O)C2CCCOC2)on1` (stereo not given) are -3% and 0.51.
For `COc1ccc(N[C@@H](C)c2c(F)cccc2F)cc1S(=O)(=O)N1CCOCC1`, the “% Inhibition” value is on record as -10% and the Z score is 1.25.
Taken in the same sequence, the figures for `Nc1ccnc(N2CCC[C@@]3(CCC(=O)N(CCO)C3)C2)n1` were -8% and 0.97.
Taken in the same sequence, the figures for `O=S(=O)(CC1CCCCC1(F)F)N1CCCC(CCO)CC1` (stereo not given) were -13% and 2.48.
Taken in the same sequence, the figures for `Cc1cnc(N)c(S(=O)(=O)N(C)Cc2nnc[nH]2)c1` were -11% and 1.85.
Regarding `O=C(Cn1cnc2nc(N3CCCC3)sc2c1=O)NCc1ccc2c(c1)OCO2`, the “% Inhibition” value is -1% and the Z score worked out at 0.2.
On the same counts, the results for `O=C(CN1CCC(NC(=O)COc2ccc(Br)cc2)CC1)Nc1ccccc1` are -17% and 1.59.
On the same counts, the results for `O=C(c1ccccc1-c1ccccc1)N1CCCn2nc([C@@H](O)CO)cc2C1` are -10% and 1.93.
Turning to `Cc1nc2c(o1)CCCC2NCC(c1ccco1)N1CCCC1` (stereo not given), the “% Inhibition” value is listed as 3% and the Z score was -0.49.
Regarding `CC(NC(=O)Nc1ccc2c(c1)OCO2)C1CCCO1` (stereo not given), the “% Inhibition” value is -6% and the Z score is 0.76.
On the same counts, the results for `Cn1cc2c(n1)c(=O)n(Cc1ccc(F)cc1)c(=O)n2CC(=O)Nc1ccc2c(c1)OCO2` are 7% and -0.96.
As for `CC[C@H](NC(=O)Nc1ccccc1)c1ncnn1CC`, the “% Inhibition” value is listed as -9% and the Z score was 0.78.
For the molecule `Cc1ccc(C(=O)c2ccc(Br)cc2)cc1S(=O)(=O)Nc1cccnc1`, the “% Inhibition” value is -44% and the Z score came to 5.19.
As to `COc1cc(N2CCC3(CCC(=O)N(CCc4ccncc4)C3)CC2)nc(N)n1`, the “% Inhibition” value is recorded as -4% and the Z score turned out to be 0.6.
As for `Cc1nnc(CN(C)Cc2cscn2)o1`, the “% Inhibition” value is -8% and the Z score is reported as 1.26.
`Cc1ccc(NC(=O)C[C@@H]2OCCc3ccsc32)c(-c2nc(C3CC3)no2)c1`: the “% Inhibition” value was -10% and the Z score came out at 1.76.
Regarding `COc1cccn(Cc2noc(C3CCCC3)n2)c1=O`, the “% Inhibition” value was -17% and the Z score is listed as 2.62.
`CCOC(=O)N1CC[C@H](NCc2ccc(Br)o2)C1`: the “% Inhibition” value was -13% and the Z score came to 1.88.
With `CCN(C)C1(CNC(=O)Nc2ccc(C(N)=O)c(Cl)c2)CCCC1`, the “% Inhibition” value is recorded as -1% and the Z score is recorded as 0.13.
In the case of `OCc1cc(CC2(NCc3cccc4c3OCO4)COC2)no1`, the “% Inhibition” value was -5% and the Z score is given as 0.82.
In the case of `Cn1cc(S(=O)(=O)Nc2nc3ccccc3nc2N2CCc3ccccc3C2)cn1`, the “% Inhibition” value was 2% and the Z score is given as -0.27.
Regarding `NC(=O)Cn1ccnc1[C@H]1CCCN(C(=O)c2ncc(F)cc2F)C1`, the “% Inhibition” value is -2% and the Z score is reported as 0.35.
On the same counts, the results for `Cc1ccc(NS(=O)(=O)C[C@H]2CCCCO2)cc1-c1ncco1` are 5% and -0.61.
As for `O=C(NCCc1csc(-n2cccn2)n1)c1ccccc1`, the “% Inhibition” value came to 3% and the Z score is on record as -0.39.
With `CCC[C@H]1C(=O)NCCN1C(=O)c1ccc(-n2cccn2)cc1`, the “% Inhibition” value is -13% and the Z score came out at 2.03.
With `COc1ccc(C2=[N+]([O-])C(C)(C)C(C)(C)[N+]([O-])=C2)cc1`, the “% Inhibition” value is recorded as -8% and the Z score is on record as 1.15.
With `CC(C)CCOc1ccc(C(C)NC(=O)[C@@H]2CCCN2C(=O)NC(C)C)cc1` (stereo not given in full), the “% Inhibition” value was -8% and the Z score turned out to be 0.81.
On to `CN1CCCC[C@H]1C(=O)NCCc1cccc(Cl)c1`, for which the “% Inhibition” value is -11% and the Z score was determined as 2.17.
On the same counts, the results for `O[C@H]1[C@H](NCc2ccccc2)[C@H]2CO[C@H](O2)[C@@H]1n1cncn1` are 31% and -3.53.
In the case of `CCN(CC(=O)NCc1cccs1)C(=O)C(C)(C)Oc1ccc(Cl)cc1`, the “% Inhibition” value was -15% and the Z score is given as 1.75.
As to `Cc1cc(C(=O)N(C)C2C3CCOC3C2(C)C)on1` (stereo not given), the “% Inhibition” value is recorded as -10% and the Z score stood at 1.43.
As to `Cc1ccnc(CNc2cccc(F)c2)n1`, the “% Inhibition” value is on record as -13% and the Z score was 1.9.
Regarding `CCN(C(=O)c1ccccc1N1CCC(=O)NC1=O)[C@H]1COC[C@@H]1O`, the “% Inhibition” value was -12% and the Z score was found to be 2.24.
On to `Cc1c(C(=O)N2CCCCCC2)cnn1-c1cc(-c2nc(C(C)(C)C)no2)ccn1`, for which the “% Inhibition” value was -7% and the Z score is given as 1.04.
Consider `CCNS(=O)(=O)CCNC(=O)[C@@H](C)CC1CCCC1`, for which the “% Inhibition” value was -7% and the Z score came to 0.89.
Turning to `C=CCNC(=O)c1coc(COc2ccc3c(c2)[C@H](c2ccc(F)cc2)N(C(=O)C(C)C)CC3)n1`, the “% Inhibition” value is recorded as -25% and the Z score came out at 4.81.
As for `Cc1ccc2nc(-c3ccsc3)c(NC3CCCC3)n2c1`, the “% Inhibition” value is -2% and the Z score was found to be 0.28.
`CC(C)Cn1nccc1C(=O)N1C[C@H](Cc2ccccc2)[C@@H](O)C1`: the “% Inhibition” value is recorded as -13% and the Z score came to 1.32.
On to `Cc1cc(Cl)ccc1OCC(=O)Nc1nc2[nH]c(-c3ccccc3)cc(=O)n2n1`, for which the “% Inhibition” value was -6% and the Z score is listed as 0.82.
For `O=C(Cn1ccnn1)N(C1CCCCC1)[C@H]1CCS(=O)(=O)C1`, the “% Inhibition” value is reported as 21% and the Z score is recorded as -2.73.
On the same counts, the results for `O=C(c1ccccn1)N1CCc2[nH]c(-c3cn[nH]c3)nc2C1` are -12% and 1.73.
On the same counts, the results for `COC(=O)CN1CCCN(C(=O)Nc2c(C)n[nH]c2C)CC1` are -7% and 1.02.
As for `COC1CCCN(c2cc(C)nc(N3CCCC(OC)C3)c2C#N)C1` (stereo not given), the “% Inhibition” value is listed as -20% and the Z score is listed as 2.27.
Taken in the same sequence, the figures for `CCC1(CC)CNC(=O)[C@H]1NC(=O)c1occ2c1CCOC2` were 7% and -0.86.
Regarding `CN(C)CCNCc1ccc(F)cc1F`, the “% Inhibition” value is -7% and the Z score is 1.23.
With `Cc1cnc([C@H](C)N2CCC(NS(=O)(=O)c3cccs3)CC2)cn1`, the “% Inhibition” value is -1% and the Z score came out at 0.12.
`Cc1c(Cl)cccc1NC(=O)c1cc2nccc(-c3cnn(C)c3C)n2n1`: the “% Inhibition” value is -12% and the Z score was determined as 1.6.
With `Cc1cccc(NC(=O)c2cccnc2-c2cccs2)c1C`, the “% Inhibition” value is -7% and the Z score stood at 1.09.
`CNc1nc(C)cc(C(=O)N2CC3(CCCCC3)[C@@H]2C(C)C)n1`: the “% Inhibition” value is reported as -9% and the Z score was 1.34.
As for `O=C(Cn1cncn1)N(c1nc2ccccc2o1)C1CC1`, the “% Inhibition” value is 10% and the Z score is -1.89.
Taken in the same sequence, the figures for `CC[C@H](C)n1nc(NC(=O)N2CCC3(CCNCC3)C2)cc1C` were -7% and 1.02.
Consider `c1nc(NCc2ccc3c(c2)COC3)c2cn[nH]c2n1`, for which the “% Inhibition” value was -4% and the Z score came out at 0.7.
On the same counts, the results for `CCN1CCN(c2ccc(C(=O)Nc3cccc(-c4ccc5c(c4)CCO5)c3)cc2F)CC1` are 18% and -2.82.
On to `CC(C)(C(=O)NCC[C@H]1CCOC1)N1CCCC1`, for which the “% Inhibition” value is reported as -1% and the Z score was determined as 0.08.
On the same counts, the results for `CCN(CC)c1nc(-c2ccccc2)c2ccc(Cl)cc2n1` are 7% and -0.95.
Regarding `CCc1c(N2CCN(c3ccccc3)CC2)[nH]c(=O)[nH]c1=O`, the “% Inhibition” value was 31% and the Z score is recorded as -3.96.
As for `Cc1ccc(C)c(-c2ccc3nc(-c4ccc(Cl)cc4)c(CN4CCN(C(=O)C5CCCC5)CC4)n3c2)c1`, the “% Inhibition” value is recorded as -16% and the Z score is on record as 1.59.
As to `Nc1ncnc(N2CCC[C@H](CNC(=O)c3ccccc3)C2)c1Cl`, the “% Inhibition” value was found to be 1% and the Z score was -0.15.
Taken in the same sequence, the figures for `COc1c(C)cnc(COc2c(C)nn(C)c2C)c1C` were -4% and 0.57.
For the molecule `CN1CC[C@@]2(CCCN(C(=O)c3ccc(-c4ccccc4)[nH]3)C2)C1`, the “% Inhibition” value is reported as 16% and the Z score was -2.06.
`CCOc1ncccc1CNC(=O)c1cccnc1O`: the “% Inhibition” value is given as 3% and the Z score is reported as -0.37.
`O=C(NC[C@H](O)c1cccnc1)c1ncoc1C1CC1`: the “% Inhibition” value was -7% and the Z score amounted to 0.94.
In the case of `CC(C)CO[C@@H](C)C(=O)NCCCc1nc(-c2ccccn2)cs1`, the “% Inhibition” value is reported as -11% and the Z score is recorded as 1.18.
As for `COCCC(C)(C)NC(=O)c1ccc(O)cc1F`, the “% Inhibition” value is -7% and the Z score was 1.21.
As for `CC(C)c1cc(C(=O)N(Cc2ccco2)C2CCN(C)CC2)on1`, the “% Inhibition” value is given as -2% and the Z score amounted to 0.25.
In the case of `Cc1c(NS(=O)(=O)c2ccc(Cl)cc2)c(-n2cnnc2)nn1C`, the “% Inhibition” value worked out at 39% and the Z score is -5.22.
Regarding `Cc1ocnc1C(=O)Nc1ccc(Oc2nncc3ccccc23)cc1`, the “% Inhibition” value is given as -6% and the Z score was found to be 0.83.
